IC50 is the fitted dose that halves viability relative to control wells, and lower means more sensitive; fits outside the tested doses are given as limits. The AUC spans the tested range (256-fold, ending at the top dose) of the same fit; it is 1 without any effect and falls as sensitivity rises. The top dose, if marked as inferred, was calculated from the reported fits.
Tests used:
PFI-1 = compound: COc1ccccc1S(=O)(=O)Nc1ccc2c(c1)CN(C)C(=O)N2 [PFI-1]; experiment: Viability of human cancer cell lines after 72 h of drug (GDSC screen); details: top dose 10 µM; top dose inferred
Protocol: (§1)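 Human cancer cell lines in 384-well plates, medium with 10% serum, drug for 72 h over a 256-fold dose range (nine 2-fold or five 4-fold steps up to the top dose). Adherent lines were fixed and stained with the nucleic acid dye Syto60, suspension lines read with resazurin; signal relative to control wells, capped at 0 and 100%. One two-parameter sigmoid per drug and line, fitted in a mixed model over all curves with the slope shared within a line.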

NG-25 = compound: CCN1CCN(Cc2ccc(NC(=O)c3ccc(C)c(Oc4ccnc5[nH]ccc45)c3)cc2C(F)(F)F)CC1 [NG-25]; experiment: as above; details: top dose 10.24 µM; top dose inferred
Protocol: as §1

Cell Line	AUC (PFI-1)	IC50 (PFI-1)	AUC (NG-25)	IC50 (NG-25)
A549 (lung adenocarcinoma, adherent)	0.806	5.85 µM		
BALL-1 (B-cell leukaemia, suspension)	0.955	> 10 µM		
BT-549 (breast, adherent)	0.841	> 10 µM		
CADO-ES1 (Ewing sarcoma, suspension)	0.959	> 10 µM	0.793	4.76 µM
CHP-134 (neuroblastoma, suspension)			0.822	8.19 µM
CL-34 (large intestine, adherent)	0.898	> 10 µM		
CL-40 (large intestine, adherent)	0.925	> 10 µM		
CML-T1 (chronic myeloid leukaemia, suspension)	0.948	> 10 µM		
COR-L32 (small cell lung carcinoma, suspension)	0.834	> 10 µM		
COR-L303 (small cell lung carcinoma, suspension)			0.893	> 10.2 µM
COR-L311 (small cell lung carcinoma, suspension)			0.861	9.78 µM
COR-L321 (lung, suspension)	0.95	> 10 µM	0.95	> 10.2 µM
CRO-AP2 (B-cell lymphoma, suspension)	0.685	1.9 µM		
D-423MG (glioma, adherent)	0.877	> 10 µM	0.793	5.86 µM
D-566MG (glioma, adherent)	0.8	4.77 µM	0.874	9.71 µM
DIFI (large intestine, adherent)	0.922	> 10 µM		
DOV13 (ovary, adherent)	0.803	5.9 µM	0.929	> 10.2 µM
EMC-BAC-1 (lung adenocarcinoma, adherent)	0.914	> 10 µM	0.86	> 10.2 µM
EMC-BAC-2 (lung adenocarcinoma, adherent)	0.783	5.07 µM	0.9	> 10.2 µM
ESO26 (oesophagus, adherent)	0.866	8.08 µM	0.725	2.66 µM
ESO51 (oesophagus, semi-adherent)	0.912	> 10 µM	0.871	> 10.2 µM
EW-22 (Ewing sarcoma, adherent)	0.77	3.64 µM		
FLO-1 (oesophagus, adherent)	0.821	9.65 µM	0.763	5.35 µM
H2810 (mesothelioma, adherent)	0.862	> 10 µM		
HCC-366 (non-small cell lung carcinoma, adherent)	0.925	> 10 µM		

Cell Line	AUC (PFI-1)	IC50 (PFI-1)	AUC (NG-25)	IC50 (NG-25)
Hey (ovary, adherent)	0.779	3.85 µM	0.866	8.25 µM
Hs746T (stomach, adherent)	0.83	9.52 µM	0.895	> 10.2 µM
IGROV-1 (ovary, adherent)	0.925	> 10 µM		
JEKO-1 (B-cell lymphoma, suspension)	0.859	7.75 µM		
JHOS-2 (ovary, adherent)	0.843	8.88 µM	0.808	6.42 µM
JHOS-3 (ovary, adherent)	0.94	> 10 µM	0.945	> 10.2 µM
Jurkat (T-cell leukaemia, suspension)	0.821	4.5 µM		
K-562 (chronic myeloid leukaemia, suspension)			0.097	< 0.04 µM
KARPAS-1106P (B-cell lymphoma, suspension)	0.862	6.25 µM		
KATOIII (stomach, semi-adherent)	0.975	> 10 µM		
KMS-11 (myeloma, suspension)	0.786	3.66 µM	0.761	3.15 µM
KNS-62 (lung squamous cell carcinoma, adherent)	0.721	3.56 µM		
KYAE-1 (oesophagus, suspension)	0.899	> 10 µM	0.823	6.87 µM
MEL-HO (melanoma, adherent)	0.772	3.9 µM		
MHH-CALL-2 (B-cell leukaemia, suspension)	0.997	> 10 µM		
MKN7 (stomach, adherent)	0.973	> 10 µM		
MOLM-16 (acute myeloid leukaemia, suspension)	0.628	1.34 µM		
MOLT-16 (T-cell lymphoblastic leukaemia, suspension)	0.708	2.09 µM		
NCC010 (kidney, adherent)	0.974	> 10 µM		
NCC021 (kidney, adherent)	0.963	> 10 µM	0.812	6.64 µM
NCI-H146 (small cell lung carcinoma, suspension)	0.936	> 10 µM		
NCI-H508 (large intestine, semi-adherent)	0.851	> 10 µM		
NCI-H630 (large intestine, adherent)	0.839	7.58 µM	0.945	> 10.2 µM
NCI-H835 (lung carcinoid, suspension)	0.939	> 10 µM		
NCI-H929 (myeloma, suspension)	0.673	1.74 µM		

Cell Line	AUC (PFI-1)	IC50 (PFI-1)	AUC (NG-25)	IC50 (NG-25)
NCI-H1105 (small cell lung carcinoma, suspension)	0.922	> 10 µM		
NCI-H1341 (small cell lung carcinoma, suspension)	0.924	> 10 µM		
NCI-H1650 (lung adenocarcinoma, adherent)	0.932	> 10 µM		
NCI-H2066 (small cell lung carcinoma, adherent)	0.891	> 10 µM		
NCI-N87 (stomach, adherent)	0.873	> 10 µM		
OACM5-1 (oesophagus, semi-adherent)	0.87	> 10 µM	0.433	0.411 µM
OACp4C (oesophagus, adherent)	0.904	> 10 µM	0.787	5.43 µM
OC-314 (ovary, adherent)	0.759	3.04 µM	0.849	6.06 µM
OCI-LY7 (B-cell lymphoma, suspension)	0.982	> 10 µM		
OV-7 (ovary, adherent)	0.901	> 10 µM	0.936	> 10.2 µM
OV-17R (ovary, adherent)	0.601	1.32 µM	0.781	6.14 µM
PWR-1E (prostate, adherent)	0.972	> 10 µM		
RCH-ACV (B-cell leukaemia, suspension)	0.881	7.36 µM		
RH-18 (rhabdomyosarcoma, adherent)	0.84	8.39 µM		
SK-GT-2 (stomach, adherent)	0.81	5.62 µM		
SK-MEL-31 (melanoma, adherent)	0.936	> 10 µM		
SNU-175 (large intestine, suspension)			0.84	6.42 µM
SUP-B8 (B-cell leukaemia, suspension)	0.964	> 10 µM		
TC-YIK (cervix, suspension)	0.652	1.55 µM		
U-266 (myeloma, semi-adherent)	0.948	> 10 µM		
VMRC-LCD (lung adenocarcinoma, adherent)	0.896	8.68 µM		
YMB-1-E (breast, adherent)			0.906	> 10.2 µM
ZR-75-30 (breast, adherent)	0.981	> 10 µM		

From the supplement of paper PMC4967469
